Data published in CN116199779A (BEIJING DONGFANG BIOTECH CO LTD; BEIJING JINGYI TAIXIANG …, dated 2023).
Positions count from the first letter of the chain named. Blank lines part the entries; values can stand above or below the binder they belong to.

Tests used:
[1] = target: T1, LILRB4抗原 (人LILRB4蛋白胞外段) (human, UniProt Q8NHJ6 22-259); experiment: ELISA, coated LILRB4, anti-human IgG-HRP
T1 construct: extracellular domain; also called 白细胞免疫球蛋白样受体亚家族B成员4

[2] = target: T2, THP-1细胞表面的LILRB4 (human, UniProt Q8NHJ6 22-448); experiment: cell-based or functional assay
[3] = target: T2, THP-1细胞表面的LILRB4; experiment: flow cytometry competition on THP-1 cells; competitor FITC-labelled ApoE
[4] = target: T2, THP-1细胞表面的LILRB4; experiment: cell-based or functional assay; remark: listed apart in the source
[5] = target: T2, THP-1细胞表面的LILRB4; experiment: flow cytometry on THP-1 cells

- EC50 [1]: 0.918 µg/mL
B1: 人源化抗体HB-Ⅱ (human IgG1, Ck) (antibody)
heavy: QVQLVQSGAEVKKPGASVKVSCKASGYTFTNYWMHWVRQAPGQGLEWIGEINPSNGRTNYNEKFKTRATLTVDTSTSTAYMELSSLRSEDTAVYYCARWGQLGLREGYYAVDYWGQGTLVTVSSASTKGPSVFPLAPSSKSTSGGTAALGCLVKDYFPEPVTVSWNSGALTSGVHTFPAVLQSSGLYSLSSVVTVPSSSLGTQTYICNVNHKPSNTKVDKRV[human IgG1 Fc with changes not given here]
light: DIQMTQSPSSLSASVGDRVTITCRASQDISNYLNWYQQKPGGAVKLLIYYTSRLHSGVPSRFSGSGSGTDYTFTISSLQPEDIATYFCQQGNTLPPTFGGGTKVEIKRTVAAPSVFIFPPSDEQLKSGTASVVCLLNNFYPREAKVQWKVDNALQSGNSQESVTEQDSKDSTYSLSSTLTLSKADYEKHKVYACEVTHQGLSSPVTKSFNRGEC
notes: also called HB-II

- IC50, NF-κB luciferase reporter in THP-1-NF-κB-Luc cells stimulated with ApoE [2]: 0.83 µg/mL
- IC50 [3]: 0.426 µg/mL
- IC50 of inhibition of ARG1 secretion by THP-1 cells with ApoE (arginase activity) [4]: 30.6 µg/mL
- EC50 [5]: 0.386 µg/mL
- EC50 [1]: 0.0743 µg/mL
B2: 人源化抗体HB-Ⅲ (human IgG1, Ck) (antibody)
heavy: QVQLVQSGAEVKKPGASVKVSCKASGYTFTNYWMHWVRQAPGQGLEWIGEINPSNGRTNYNEKFKTRATLTVDTSTSTAYMELSSLRSEDTAVYYCARWGQLGLREGYYAVDYWGQGTLVTVSSASTKGPSVFPLAPSSKSTSGGTAALGCLVKDYFPEPVTVSWNSGALTSGVHTFPAVLQSSGLYSLSSVVTVPSSSLGTQTYICNVNHKPSNTKVDKRV[human IgG1 Fc with changes not given here]
light: B1 light with Q3V
notes: also called HB-III
